The source gives no read counts; variants with many changes may rest on few reads.
B1: CPEB3 Ribozyme (parent)
chain: UAACAGGGGGCCACAGCAGAAGCGUUCACGUCGCAGCCCCUGUCAGAUUCUGGUGAAUCUGCGAAUUCUGCUGUAUAUCUC

Variants of: B1
Experiment: self-cleavage, relative activity (ratio to wild type); higher = more cleavage; in vitro, sequencing
In short: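 For each CPEB3 ribozyme variant, relative activity is its cleaved/total read fraction divided by the unmutated ribozyme's. Barcoded error-prone PCR libraries were transcribed by T7 RNA polymerase (5 hours, 37°C) and held in DNase I for 15 min before an EDTA stop, with cleavage occurring throughout. Template-switching reverse transcription and Illumina sequencing were used to read the RNAs. A 5-read minimum applied, and results are the mean of three batches.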

Row | Variant | self-cleavage
1 | A5U A18G A35U C81U | 0.34
2 | A5U A18G C34U U41C U43A U67C G70A | 0.07
3 | A5U A18G G22U U41G U69C | 0.09
4 | A5U A18G U25C C50U U54G | 0.05
5 | A5U A18G U26C G36C U76A | 0
6 | A5U A18G U26C G55A U67C U78C U80C | 0.06
7 | A5U A18G U31A | 0.54
8 | A5U A18G U31A A35C U69A | 0.2
9 | A5U A18G U51A A64U A77U | 0.28
10 | A5U A18G U54C | 0.6
11 | A5U A18G U58C G63A | 0.26
12 | A5U A18U C79G | 1.01
13 | A5U A18U G30A U72C | 0.09
14 | A5U A18U U26C A35U A45C C68G | 0.14
15 | A5U A18U U41A A64U | 0.25
16 | A5U A18U U41A U66C U80A | 0.14
17 | A5U A18U U51C C81U | 0.39
18 | A5U A20G A28G | 0.6
19 | A5U A20G A47G C68A | 0.14
20 | A5U A20G C32A A35G U54A U78C | 0.36
21 | A5U A20G C62U | 0.21
22 | A5U A20G U26A U66C | 0.29
23 | A5U A20G U72C U76C U78C | 1
24 | A5U A20U U26C U43C G61C U66C C81A | 0.21

Row | Variant | self-cleavage
25 | A5U A20U U41C G70A U72C | 0.13
26 | A5U A20U U43C U48C G55C U72A | 0.25
27 | A5U A20U U51A | 0.49
28 | A5U A21C G33A U43C A47G U69A | 0.11
29 | A5U A21C U58C | 0.15
30 | A5U A21G A28U A64G | 0.58
31 | A5U A21G A45G A47G | 0.42
32 | A5U A21G A56G | 0.47
33 | A5U A21G A64U | 0.08
34 | A5U A21G U26C G52U U54A | 0.28
35 | A5U A21G U41A U66C | 0.06
36 | A5U A21G U49C U66C | 0.27
37 | A5U A21G U74C | 0.98
38 | A5U A21G U78C | 0.63
39 | A5U A21U A35G U43A | 1.18
40 | A5U A21U C37A A57G U67A | 0.22
41 | A5U A21U U43A A65G U66C | 0.13
42 | A5U A28G A56G U60A U76C | 0.19
43 | A5U A28G G36A | 0.3
44 | A5U A28G G70U U74C | 0.18
45 | A5U A28G U49C U51A | 0.42
46 | A5U A28G U51C U80C | 0.89
47 | A5U A28G U67A U74C | 0.4
48 | A5U A28U A75G | 0.76

Row | Variant | self-cleavage
49 | A5U A28U G63U | 1.11
50 | A5U A28U U41C | 0.9
51 | A5U A35C U43A | 0.88
52 | A5U A35U A45C A65G U67A A77U | 0.15
53 | A5U A35U U60A | 0.26
54 | A5U A45G A56G U78A U80C | 0.55
55 | A5U A45G U48C | 0.26
56 | A5U A45G U54C G63A | 0.97
57 | A5U A45G U78A | 1.09
58 | A5U A45U C79G | 0.76
59 | A5U A45U G73A U76A A77U | 1.46
60 | A5U A47G A57G | 0.67
61 | A5U A47G U54C | 1.06
62 | A5U A47G U66G A77G U78C | 0.13
63 | A5U A47U A64G U78A | 0.58
64 | A5U A57U U69C | 0.23
65 | A5U A65G A77U | 0.82
66 | A5U C11G A13U U26A U69A | 0.11
67 | A5U C11G U31C A75U | 0.7
68 | A5U C11U C39U | 0.57
69 | A5U C12A A13C A18G | 1.06
70 | A5U C12A C17U U51A A57G | 0.41
71 | A5U C12U A15U U26C U31C U66C A75U | 0.3
72 | A5U C12U U25A | 0.37

Row | Variant | self-cleavage
73 | A5U C12U U25C U51A U66C U69A | 0.15
74 | A5U C12U U49C U60C | 0.1
75 | A5U C12U U72A U78C | 1.26
76 | A5U C14U A64G | 1.17
77 | A5U C17G A18U C29U U72A | 0.24
78 | A5U C17U A47G A56U U60C U72G | 0.13
79 | A5U C17U A64U | 0.22
80 | A5U C17U C59A U80C | 0.2
81 | A5U C17U G42U | 0.27
82 | A5U C17U U31A U43C | 0.25
83 | A5U C23G U26A C44A A64G | 0.13
84 | A5U C23G U60C A65G | 0.11
85 | A5U C23U U51C | 0.28
86 | A5U C23U U51C A56G U58C | 0.32
87 | A5U C27A U60A U72C | 0.23
88 | A5U C27U A56U U74C | 0.21
89 | A5U C29A A57G U58C | 0.28
90 | A5U C29U A56G | 0.18
91 | A5U C32G U80C | 0.11
92 | A5U C34A U69C | 0.28
93 | A5U C37G U69C | 0.34
94 | A5U C37U U60C A77G | 0.21
95 | A5U C38G C40G U48C | 0.11
96 | A5U C38G U41C U51C U54C A65G U67C | 0.1

Row | Variant | self-cleavage
97 | A5U C39A G61C C71A U76C | 0.08
98 | A5U C39A U69C U74C | 0.11
99 | A5U C40A A47G | 0.31
100 | A5U C40G A56C U60A | 0.5
101 | A5U C44A A77G | 0.51
102 | A5U C44U U54G | 0.15
103 | A5U C62A U80A | 0.24
104 | A5U G6A A28G C40U U48C U76C | 0.11
105 | A5U G6A U25C U31C A65G A77G | 0.05
106 | A5U G6A U31A A64G A65U U66C U78C | 0.07
107 | A5U G6A U48A A64G A65G | 0.31
108 | A5U G6C G16A A45G A65G | 0.07
109 | A5U G6U U41A U60C A65G | 0.07
110 | A5U G7A A18U U26C G53U | 0.25
111 | A5U G7A C40A | 0.33
112 | A5U G7C A18G A20G U26C A28U U48C | 0.3
113 | A5U G7C A20G U26C A28U U31C U80A | 0.04
114 | A5U G7C C40U U76A | 0.26
115 | A5U G7U G10A A15G U54A | 0.32
116 | A5U G8A A56G U60C A75C | 0.21
117 | A5U G8A C11U U41C U49A A77G | 0.2
118 | A5U G8A C40G U54A A64G U66C | 0.04
119 | A5U G8U A18G A20U U43G A45U | 0.11
120 | A5U G8U A77G | 0.21

Row | Variant | self-cleavage
121 | A5U G9A A13G A20G U54A | 0.21
122 | A5U G9A A18U C38U G42U U78C | 0.05
123 | A5U G9A A28C G46A U58A U60C | 0.07
124 | A5U G9A C11U G33U U78C | 0.13
125 | A5U G9A U76C | 0.26
126 | A5U G10A A20G C23U U54A | 0.28
127 | A5U G10A A45G | 0.61
128 | A5U G10A A45G U49C | 0.07
129 | A5U G10A G33A U49A | 0.04
130 | A5U G10C A13C U41C | 0.61
131 | A5U G10C A20G U25C A47U | 0.37
132 | A5U G10U A35U A57G | 0.07
133 | A5U G16U A18G U25C U51C A65G U69C | 0.05
134 | A5U G19U U41C U51A | 0.21
135 | A5U G22U U76C A77G | 0.28
136 | A5U G24A C27A A35U A47U A56G | 0.2
137 | A5U G30A U80C | 0.6
138 | A5U G30U U49C | 0.1
139 | A5U G33A U67A U69C | 0.29
140 | A5U G36A U69C | 0.05
141 | A5U G52U U54C | 1.19
142 | A5U G70A U80A | 1.03
143 | A5U U25A A35U U54A | 0.17
144 | A5U U25A U26A U72C | 0.11

Row | Variant | self-cleavage
145 | A5U U25A U80A | 0.34
146 | A5U U25C A28C A35G A64G C68U | 0.34
147 | A5U U25C A28U A35U A45G C62U U72C | 0.04
148 | A5U U25C A35G | 0.38
149 | A5U U25C U26A G55U | 0.5
150 | A5U U25C U41G A56G | 0.2
151 | A5U U25C U49C | 0.36
152 | A5U U26A A35G | 1.27
153 | A5U U26A A47U A75G | 0.17
154 | A5U U26A C79A U80A | 1.22
155 | A5U U26A G52A | 1.03
156 | A5U U26A U43A | 0.25
157 | A5U U26A U48C U60A U72G | 0.3
158 | A5U U26A U60C | 0.37
159 | A5U U26C A45G G55A U72C | 0.47
160 | A5U U26C A45G U60G A65G | 0.12
161 | A5U U26C A77G | 0.83
162 | A5U U26C C39A G46U A75G | 0.06
163 | A5U U26C G33U | 0.1
164 | A5U U26C U49C A64G U67A U72C | 0.1
165 | A5U U26C U72C | 0.8
166 | A5U U26C U78C | 0.54
167 | A5U U31A U41A U60C U69C U72A | 0.08

From the RNAGym collection of RNA variant scans (doi:10.1093/nar/gkz1192)
